Tests used:
[1] = system: Nicotiana benthamiana leaves; assay: Transient expression of DHS1b orthologs in Nicotiana benthamiana leaves, LCMS (FIG. 21); format: in vivo; details: 72 hours post-infiltration
Source text: To determine whether the grass DHS1b gene encodes a deregulated DHS in other grass species besides Brachypodium distachyon, BdDHS1b orthologs from Oryza sativa (OsDHS1b) and Sorghum bicolor (SbDHS1b) were cloned into the Golden Gate plant expression vector pICH47822 under control of the RuBisCO small subunit 3B promoter from Arabidopsis thaliana.^52 A 3× human influenza hemagglutinin tag was fused in frame to the C-terminus of the DHS genes to confirm the production of heterologous DHS protein.
Agrobacterium tumefaciens (strain GV3101) clones transformed with the OsDHS1b and SbDHS1b plant expression constructs were infiltrated into the leaves of Nicotiana benthamiana side-by-side with Agrobacterium clones expressing BdDHS1a, BdDHS1b, and the fluorescent protein YPet (negative control). The levels of phenylalanine, tyrosine, tryptophan, and three of their biosynthetic intermediates (shikimate, prephenate, and arogenate) were determined at 72 hours post-infiltration by liquid chromatography coupled to mass spectrometry (LCMS). […] On average, expression of BdDHS1b or OsDHS1b increased phenylalanine, tyrosine, and shikimate levels by 5 to 20-times compared to the YPet negative control (FIG. 21), whereas prephenate and arogenate rose to ˜100-times the control (FIG. 21). […]

[2] = system: Nicotiana benthamiana leaves; assay: Transient expression of Brachypodium DHS in Nicotiana benthamiana leaves (AtRbcS3B promoter), UHPLC-MS; format: in vivo; details: three days after transient expression
Experimental: Agrobacterium tumefaciens strain GV3101 transformed with the plant expression constructs were grown at 28° C. for 24 to 36 hours in 10 mL of LB liquid media containing the corresponding antibiotics. The saturated cultures were spun down at 3,000 g for 5 minutes at room temperature and washed twice with 3 mL of induction media (IM; 10 mM MES [2-(N-morpholino) ethanesulfonic acid] buffer pH 5.6, 0.5% glucose, 2 mM NaH2PO4, 20 mM NH4Cl, 1 mM MgSO4, 2 mM KCl, 0.1 mM CaCl2), 0.01 mM FeSO4, and 0.2 mM acetosyringone). After washing, bacteria cultures were incubated in IM for 2 to 3 hours at room temperature in the dark, pelleted at 3000 g for 5 minutes, and resuspended into 3 mL of 10 mM MES buffer pH 5.6 with 0.2 mM acetosyringone. OD600nm was adjusted to a final density of 0.25 units for pAGM4673::TyrA (FIG. 3F) and pICH47822::DHS (FIG. 5A) infiltration, or 0.5 units for pAGM4673::TyrA-DHS co-expression constructs (FIG. 5B) using 10 mM MES buffer pH 5.6 with 0.2 mM acetosyringone. For infiltration of pICH47822::DHS constructs, the Agrobacterium suspensions were adjusted to OD600nm=0.5 and mixed with an equal volume of a suspension of an Agrobacterium clone transformed with pICH4780::p19 under control of the Arabidopsis ubiquitin ligase promoter adjusted to OD600nm=0.5, resulting in a final mixture of 0.25 OD600nm units for each construct. […] Nicotiana benthamiana plants of around 4-weeks-old were infiltrated close to the end of the light period into four different spots per plant, distributed into two leaves at two infiltrations per leaf, with each individual spot corresponding with a different construct/treatment. In total, each construct was infiltrated as 5 or 6 independent replicates into different plants following a randomized pattern. Samples consisting of the infiltrated leaf limbs, without the main veins, were harvested at ˜72 hours post infiltration and subjected to HPLC or UHPLC-MS analysis (see details below).
Around 30-40 mg of pulverized frozen plant tissue were resuspended into 400 μL of chloroform:methanol (1:2) for ˜1 hour with regular vortexing, followed by centrifugation at 20,000 g for 5 minutes at room temperature. The whole supernatant was transferred to a fresh tube, mixed with 125 μL of chloroform, 300 μL of water, and spun down at 15,000 g for 5 minutes for phase separation. The upper, aqueous phase was recovered and dried down for 4 hours to overnight in a speed-vac at 40° C. […]
Aromatic amino acids and shikimate were detected using a Vanquish Horizon Binary UHPLC (Thermo Scientific) coupled to a Q Exactive mass spectrometer (Thermo Scientific). Two microliters of the sample were analyzed using a InfinityLab Poroshell 120 HILIC-Z column (150×2.1 mm, 2.7-μm particle size; Agilent) in a gradient of 5 mM ammonium acetate/0.2% acetic acid buffer in water (solvent A) and 5 mM ammonium acetate/0.2% acetic acid buffer in 95% acetonitrile (solvent B) at a flow rate of 0.45 mL/min and column temperature of 40° C. […] Full MS spectra were recorded between 2 and 19 minutes using full scan in negative mode, under the following parameters: sheath gas flow rate, 55; auxiliary gas flow rate, 20; sweep gas flow rate, 2; spray voltage, 3 kV; capillary temperature, 400° C.; S-lens RF level, 50; resolution, 70,000; AGC target 3×10^6, maximum scan time 100 ms; scan range 70-1050 m/z. […] For ^13C labeled plant samples, ^13C-isotopologues were detected based on a mass increase of 1.00335 atomic mass units for each ^13C atom. […]

[3] = DHS activity with combinations of effectors; format: biochemical; details: 0.15 mM each effector (FIG. 19)
Experimental: DHS effector molecules can have synergistic effects when combined in vitro^51. To explore this possibility, we tested the impact of different combinations of tryptophan, tyrosine, arogenate and chorismate, at 0.15 mM each, on the activity of Brachypodium DHS enzymes.

B1: BdDHS1b: deregulated DHS1b enzyme of Brachypodium distachyon, SEQ ID NO: 3 (protein)
chain: MALATNHAAAAISSGAAAPQPRRAPSFLPLKRRTICAVHAAEPSKSAAAAPAAAKTSSPSVAPEKSAIPDPKPEAPAVPAKWTVDSWRAKKALQLPEYPNAAELESALKTIEAFPPIVFAGEARHLEERLADAAMGRAFLLQGGDCAESFKEFNGNNIRDTFRVLLQMSAVLTFGGQMPVIKVGRMAGQFAKPRSDSFEVRDGVKLPSYRGDNINGDAFNEKSRIPDPQRMIRAYTQSAATLNLLRAFAMGGYAAMQRVTQWNLDFTENSEQGDRYRELAHRVDEALGFMSAAGLTLDHPVMSSTEFWTSHECLLLPYEQALTRQDSTSGLFYDCSAHMLWVGERTRQLDGAHVEFLRGVANPLGIKVSDKMNPADLVKLIDILNPTNKPGRITIITRMGAENMRVKLPHLIRAVRHAGQIVTWITDPMHGNTIKAPCGLKTRPFDSILAEVRAFFDVHEQEGSHAGGVHLEMTGQNVTECIGGSRTVTFDDLGDRYHTHCDPRLNASQSLELSFIIAEKLRKRRIRSSKLNSVLPLPTYGF
modifications: Brachypodium distachyon
For B1, the “prephenate and arogenate relative to the control” value [1] was about 100 times, the “phenylalanine accumulation compared to tdTomato control” value [2] was 18 times and the phenylalanine content [2] was about 2000 nmol/gFW. The “shikimate accumulation compared to tdTomato control” value [2] was 3 times, the “tryptophan accumulation compared to tdTomato control” value [2] was 3 times and the “tyrosine accumulation compared to tdTomato control” value [2] was 10 times. The “impact of effector combinations on DHS activity” value [3] was “None of the combinations tested had a significant impact”.
